This is one part of the list. Cut-off read from the data, not from the text of the source: active = 3.2 or more and inactive = the rest. The signal is at background level for most entries.
B1: CHST6_Y358_Y358D_YF (peptide)
chain: LQLLGDRPVFS
B2: CHST6_Y358_Y358H (peptide)
chain: LQLLGHRPVYS
B3: CHST6_Y362_YF (peptide)
chain: GFRPVYSEDEQ
B4: CKAP5_Y1854 (peptide)
chain: GLAELYEYKKK
B5: CKAP5_Y1854_K1857Q (peptide)
chain: GLAELYEYQKK
B6: CKAP5_Y1854_K1857Q_YF (peptide)
chain: GLAELYEFQKK
B7: CKAP5_Y1854_YF (peptide)
chain: GLAELYEFKKK
B8: CKAP5_Y1860_K1857Q_YF (peptide)
chain: EFQKKYSDADI
B9: CKB_Y173_K177R_YF (peptide)
chain: DLAGRYFALRS
B10: CKB_Y173_YF (peptide)
chain: DLAGRYFALKS
B11: CKB_Y174_K177R (peptide)
chain: LAGRYYALRSM
B12: CKB_Y174_YF (peptide)
chain: LAGRFYALKSM
B13: CKM_Y125 (peptide)
chain: DLDPNYVLSSR
B14: CLCA1_Y147 (peptide)
chain: KKLAEYGPQGR
B15: CLCA1_Y661_Y661H_YF (peptide)
chain: GVFSRHFTTFD
B16: CLCA1_Y665 (peptide)
chain: RYFTTYDTNGR
B17: CLCN4_Y548 (peptide)
chain: TGGLEYIVPLM
B18: CLCNKB_Y93 (peptide)
chain: SHLLRYLSWTV
B19: CLCNKB_Y93_S88R (peptide)
chain: RHLLRYLSWTV
B20: CLDN14_Y233_G232R (peptide)
chain: ATHSRYRLNDY
B21: CLDN14_Y233_G232R_YF (peptide)
chain: ATHSRYRLNDF
B22: CLDN7_Y195_V197A (peptide)
chain: ESKAGYRAPRS
B23: CLEC12A_Y242 (peptide)
chain: YYHCTYKKRMI
B24: CLEC12A_Y242_YF (peptide)
chain: FFHCTYKKRMI
B25: CLEC12B_Y7_T6N (peptide)
chain: SEEVNYATLTF
B26: CLIC5_Y111_T114A (peptide)
chain: SMEGLYSSAQD
B27: CLIP2_Y972 (peptide)
chain: SDQRRYSLIDR
B28: CLK1_Y305 (peptide)
chain: DYTEAYNPKIK
B29: CLK1_Y305_P307S (peptide)
chain: DYTEAYNSKIK
B30: CLK1_Y305_YF (peptide)
chain: DFTEAYNPKIK
B31: CLNK_Y69 (peptide)
chain: HSDDDYDDPEL
B32: CLNS1A_Y214_M218T (peptide)
chain: DSIRDYEDGTE
B33: CLOCK_Y378 (peptide)
chain: HTVVSYAEVRA
B34: CLRN1_Y171 (peptide)
chain: EKIANYKEGTY
B35: CLSPN_Y887 (peptide)
chain: NHRNQYQALKP
B36: CLSPN_Y887_P892T (peptide)
chain: NHRNQYQALKT
B37: CLTCL1_Y1043 (peptide)
chain: TRVMEYISRLD

How the values were obtained:
Test in all cases: enrichment score (SH2-bound / input frequency) (ratio); bacterial display of known human phosphotyrosine sites (pTyr-Var adds point mutants) read by sequencing; higher = stronger binding; tyrosines were phosphorylated by kinases first
Conditions in all cases: peptide library: pTyr-Var
[1] = target: SHP2 C-SH2 domain E139D
[2] = target: SHP2 C-SH2 domain wild-type
[3] = target: SHP2 N-SH2 domain L43F
[4] = target: SHP2 N-SH2 domain T42A
[5] = target: SHP2 N-SH2 domain T52S
[6] = target: SHP2 N-SH2 domain wild-type
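Note: displayed peptides selected on beads carrying the immobilized SH2 domain, with library peptides lacking any tyrosine serving as negative controls.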

Binder	enrichment score [1]	enrichment score [2]	enrichment score [3]	enrichment score [4]	enrichment score [5]	enrichment score [6]
B1	inactive: 1.11	inactive: 1.04	inactive: 1.09	inactive: 1.08	inactive: 1	inactive: 1.23
B2	inactive: 1.51	inactive: 1.08	inactive: 1.39	inactive: 1.13	inactive: 1.58	inactive: 1.29
B3	inactive: 0.902	inactive: 0.77	inactive: 0.715	inactive: 0.769	inactive: 0.752	inactive: 0.965
B4	inactive: 0.962	inactive: 0.898	inactive: 0.689	inactive: 0.778	inactive: 0.87	inactive: 0.664
B5	inactive: 1.32	inactive: 1.18	inactive: 1.11	inactive: 0.793	inactive: 1.17	inactive: 1.44
B6	inactive: 0.991	inactive: 0.571	inactive: 0.725	inactive: 0.41	inactive: 0.883	inactive: 0.688
B7	inactive: 0.78	inactive: 0.496	inactive: 0.573	inactive: 0.607	inactive: 0.581	inactive: 0.807
B8	inactive: 0.511	inactive: 0.516	inactive: 0.591	inactive: 0.512	inactive: 0.478	inactive: 0.603
B9	inactive: 0.899	inactive: 0.786	inactive: 0.944	inactive: 0.822	inactive: 0.874	inactive: 0.941
B10	inactive: 0.971	inactive: 0.939	inactive: 0.977	inactive: 0.797	inactive: 0.812	inactive: 0.901
B11	inactive: 1.71	inactive: 2.16	inactive: 1.75	inactive: 1.24	inactive: 1.53	inactive: 1.33
B12	inactive: 2.14	inactive: 1.82	inactive: 1.76	inactive: 1.58	inactive: 1.84	inactive: 2.3
B13	inactive: 0.717	inactive: 0.692	inactive: 0.853	inactive: 0.569	inactive: 0.734	inactive: 0.981
B14	inactive: 0.588	inactive: 0.558	inactive: 0.479	inactive: 0.502	inactive: 0.503	inactive: 0.633
B15	inactive: 0.518	inactive: 2.48	inactive: 0.497	inactive: 1.91	inactive: 2.49	–
B16	inactive: 0.806	inactive: 1.09	inactive: 0.85	inactive: 0.557	inactive: 0.648	inactive: 0.649
B17	inactive: 0.785	inactive: 0.831	inactive: 1.05	inactive: 0.839	inactive: 1.14	inactive: 0.812
B18	inactive: 1.29	inactive: 1.17	inactive: 1.31	inactive: 1.04	inactive: 1.27	inactive: 1.28
B19	inactive: 3.04	inactive: 2.61	inactive: 2.74	inactive: 2.52	inactive: 2.69	inactive: 2.74

Binder	enrichment score [1]	enrichment score [2]	enrichment score [3]	enrichment score [4]	enrichment score [5]	enrichment score [6]
B20	inactive: 0.963	inactive: 0.872	inactive: 0.901	inactive: 1.2	inactive: 0.812	inactive: 0.955
B21	inactive: 0.972	inactive: 0.864	inactive: 1.05	inactive: 0.602	inactive: 0.855	inactive: 0.87
B22	inactive: 0.446	inactive: 0.518	inactive: 0.578	inactive: 0.415	inactive: 0.499	inactive: 0.53
B23	inactive: 2.25	inactive: 2.36	inactive: 2.3	inactive: 2.06	inactive: 2.21	inactive: 2.44
B24	inactive: 2.62	inactive: 2.6	inactive: 2.17	inactive: 2.17	inactive: 1.9	inactive: 2.1
B25	inactive: 1.18	inactive: 1.67	inactive: 2.43	inactive: 2.87	inactive: 2.29	inactive: 1.45
B26	inactive: 0.889	inactive: 0.874	inactive: 0.847	inactive: 0.807	inactive: 0.872	inactive: 0.939
B27	inactive: 0.646	inactive: 0.654	inactive: 0.52	inactive: 0.475	inactive: 0.705	inactive: 0.77
B28	inactive: 0.638	inactive: 0.571	inactive: 0.579	inactive: 0.475	inactive: 0.903	inactive: 0.695
B29	inactive: 0.689	inactive: 0.561	inactive: 0.869	inactive: 0.628	inactive: 0.555	inactive: 0.713
B30	inactive: 0.703	inactive: 0.697	inactive: 0.752	inactive: 0.457	inactive: 0.569	inactive: 0.539
B31	inactive: 0.458	inactive: 0.401	inactive: 0.41	inactive: 0.456	inactive: 0.418	inactive: 0.499
B32	inactive: 0.405	inactive: 0.452	inactive: 0.554	inactive: 0.39	inactive: 0.495	inactive: 0.523
B33	inactive: 2.12	active: 3.48	active: 3.49	active: 6.57	active: 3.6	inactive: 1.8
B34	inactive: 0.566	inactive: 0.524	inactive: 0.607	inactive: 0.506	inactive: 0.551	inactive: 0.577
B35	inactive: 0.889	inactive: 0.8	inactive: 0.923	inactive: 0.838	inactive: 0.93	inactive: 0.911
B36	inactive: 1.17	inactive: 0.872	inactive: 0.869	inactive: 0.858	inactive: 0.957	inactive: 0.87
B37	inactive: 1.15	inactive: 0.825	inactive: 1.08	inactive: 1.01	inactive: 1.09	inactive: 0.954

— the supplement of paper PMC10369915
